Experimental data reported in the supplement of paper PMC4967469.
IC50 is the fitted dose that halves viability relative to control wells, and lower means more sensitive; where the fit passes the top or lowest dose, that dose stands as a limit. The AUC spans the tested range (256-fold, ending at the top dose) of the same fit; values near 1 show little effect. Where the top dose is marked as inferred, it was derived from the fitted curves, not read from the paper. For some of these results: An entry number marks a drug with two screens in the source, which often give different values.

Assays:
Assay in all cases: Viability of human cancer cell lines after 72 h of drug (GDSC screen)
[1] = compound: COc1cc(O)c2c(c1)/C=C/C[C@H](O)[C@H](O)C(=O)/C=C\C[C@H](C)OC2=O [(5Z)-7-Oxozeaenol]; settings: top dose 10 µM; top dose inferred
Experimental: (§1)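 Human cancer cell lines in 384-well plates, medium with 10% serum, drug for 72 h over a 256-fold dose range (nine 2-fold or five 4-fold steps up to the top dose). Adherent lines were fixed and stained with the nucleic acid dye Syto60, suspension lines read with resazurin; signal relative to control wells, capped at 0 and 100%. One two-parameter sigmoid per drug and line, fitted in a mixed model over all curves with the slope shared within a line.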

[2] = compound: Cc1ccc(F)c(NC(=O)Nc2ccc(-c3cccc4[nH]nc(N)c34)cc2)c1 [ABT-869]; settings: top dose 1.024 µM; top dose inferred
Experimental: as §1

[3] = compound: COc1nc(C)cnc1NS(=O)(=O)c1cccnc1-c1ccc(-c2nnco2)cc1 [Zibotentan]; settings: top dose 20 µM; top dose inferred
Experimental: as §1

[4] = compound: C/C=C(/C)C(=O)O[C@H]1C(C)=C2[C@H]([C@@H]1OC(=O)CCCCCCC)[C@@](C)(OC(C)=O)C[C@H](OC(=O)CCC)[C@@]1(O)[C@H]2OC(=O)[C@@]1(C)O [Thapsigargin]; settings: top dose 0.512 µM; top dose inferred
Experimental: as §1

[5] = compound: C=CC(=O)Nc1cc(-n2c(=O)ccc3cnc4ccc(-c5cn[nH]c5)cc4c32)ccc1C [QL-X-138]; settings: top dose 10.24 µM; top dose inferred
Experimental: as §1

[6] = compound: Cc1cnc(-c2cnc(NCCNc3ccc(C#N)cn3)nc2-c2ccc(Cl)cc2Cl)[nH]1 [CHIR-99021]
Experimental: as §1

[7] = compound: COc1cc(N2CCC(O)CC2)ccc1Nc1cc(Nc2ccccc2S(=O)(=O)C(C)C)c2cc[nH]c2n1 [MPS-1-IN-1]; settings: top dose 20 µM; top dose inferred
Experimental: as §1

[8] = compound: COc1cc2ncnc(-n3nc(-c4ccccn4)nc3N)c2cc1OC [CP466722]; settings: top dose 16 µM; top dose inferred
Experimental: as §1

[9] = compound: CCn1c(-c2nonc2N)nc2cnc(Oc3cccc(NC(=O)c4ccc(OCCN5CCOCC5)cc4)c3)cc21 [GSK269962A]; settings: top dose inferred
Experimental: as §1

[10] = top dose 2.56 µM, screen: GDSC drug entry 154
[11] = top dose 10 µM, screen: GDSC drug entry 1241, top dose inferred
[12] = top dose 5 µM, screen: GDSC drug entry 1192
[13] = top dose 2.5 µM, screen: GDSC drug entry 127

## 769-P (kidney, adherent)
[1]
  AUC: 0.662
  IC50: 1850 nM
[2]
  AUC: 0.97
  IC50: > 1020 nM
[3]
  AUC: 0.981
  IC50: > 20000 nM
[4]
  AUC: 0.454
  IC50: 23.6 nM
[5]
  AUC: 0.548
  IC50: 877 nM
[6]; [10]
  AUC: 0.704
  IC50: 635 nM
[6]; [11]
  AUC: 0.862
  IC50: 9840 nM
[7]
  AUC: 0.891
  IC50: > 20000 nM
[8]
  AUC: 0.768
  IC50: 6540 nM

## A204 (rhabdomyosarcoma, adherent)
[1]
  AUC: 0.414
  IC50: 338 nM
[2]
  AUC: 0.786
  IC50: 589 nM
[3]
  AUC: 0.973
  IC50: > 20000 nM
[4]
  AUC: 0.307
  IC50: 7.77 nM
[5]
  AUC: 0.783
  IC50: 5700 nM
[6]; [10]
  AUC: 0.916
  IC50: > 2560 nM
[6]; [11]
  AUC: 0.854
  IC50: > 10000 nM
[7]
  AUC: 0.903
  IC50: > 20000 nM
[8]
  AUC: 0.809
  IC50: 11600 nM
[9]; [12]
  AUC: 0.712
  IC50: 1490 nM

## BEN (non-small cell lung carcinoma, adherent)
[1]
  AUC: 0.953
  IC50: > 10000 nM
[2]
  AUC: 0.986
  IC50: > 1020 nM
[3]
  AUC: 0.976
  IC50: > 20000 nM
[4]
  AUC: 0.409
  IC50: 17.4 nM
[5]
  AUC: 0.777
  IC50: 4750 nM
[6]; [10]
  AUC: 0.986
  IC50: > 2560 nM
[6]; [11]
  AUC: 0.985
  IC50: > 10000 nM
[7]
  AUC: 0.943
  IC50: > 20000 nM
[8]
  AUC: 0.844
  IC50: 14000 nM
[9]; [12]
  AUC: 0.862
  IC50: > 5000 nM

## BFTC-909 (kidney, adherent)
[1]
  AUC: 0.558
  IC50: 899 nM
[2]
  AUC: 0.985
  IC50: > 1020 nM
[3]
  AUC: 0.988
  IC50: > 20000 nM
[4]
  AUC: 0.245
  IC50: 6.03 nM
[5]
  AUC: 0.917
  IC50: > 10200 nM
[6]; [10]
  AUC: 0.984
  IC50: > 2560 nM
[6]; [11]
  AUC: 0.953
  IC50: > 10000 nM
[7]
  AUC: 0.977
  IC50: > 20000 nM
[8]
  AUC: 0.929
  IC50: > 16000 nM
[9]; [12]
  AUC: 0.799
  IC50: 2340 nM

## BICR31 (head and neck, adherent)
[2]
  AUC: 0.979
  IC50: > 1020 nM
[3]
  AUC: 0.988
  IC50: > 20000 nM
[4]
  AUC: 0.488
  IC50: 29.6 nM
[5]
  AUC: 0.844
  IC50: 7480 nM
[6]; [10]
  AUC: 0.987
  IC50: > 2560 nM
[7]
  AUC: 0.981
  IC50: > 20000 nM
[8]
  AUC: 0.9
  IC50: > 16000 nM

## CAMA-1 (breast, adherent)
[1]
  AUC: 0.835
  IC50: 9020 nM
[2]
  AUC: 0.975
  IC50: > 1020 nM
[3]
  AUC: 0.983
  IC50: > 20000 nM
[4]
  AUC: 0.382
  IC50: 13.9 nM
[5]
  AUC: 0.75
  IC50: 4100 nM
[6]; [10]
  AUC: 0.983
  IC50: > 2560 nM
[6]; [11]
  AUC: 0.977
  IC50: > 10000 nM
[7]
  AUC: 0.917
  IC50: > 20000 nM
[8]
  AUC: 0.83
  IC50: 13700 nM
[9]; [12]
  AUC: 0.948
  IC50: > 5000 nM

## COLO-792 (melanoma, adherent)
[1]
  AUC: 0.662
  IC50: 1750 nM
[2]
  AUC: 0.982
  IC50: > 1020 nM
[3]
  AUC: 0.988
  IC50: > 20000 nM
[4]
  AUC: 0.619
  IC50: 67.6 nM
[5]
  AUC: 0.661
  IC50: 1780 nM
[6]; [10]
  AUC: 0.968
  IC50: > 2560 nM
[6]; [11]
  AUC: 0.944
  IC50: > 10000 nM
[7]
  AUC: 0.975
  IC50: > 20000 nM
[8]
  AUC: 0.731
  IC50: 4500 nM
[9]; [12]
  AUC: 0.73
  IC50: 1390 nM

## COR-L32 (small cell lung carcinoma, suspension)
[1]
  AUC: 0.839
  IC50: > 10000 nM
[6]; [11]
  AUC: 0.954
  IC50: > 10000 nM
[9]; [12]
  AUC: 0.879
  IC50: > 5000 nM

## COR-L105 (lung adenocarcinoma, adherent)
[1]
  AUC: 0.706
  IC50: 2750 nM
[2]
  AUC: 0.982
  IC50: > 1020 nM
[3]
  AUC: 0.976
  IC50: > 20000 nM
[4]
  AUC: 0.322
  IC50: 9.09 nM
[5]
  AUC: 0.581
  IC50: 1120 nM
[6]; [10]
  AUC: 0.944
  IC50: > 2560 nM
[6]; [11]
  AUC: 0.966
  IC50: > 10000 nM
[7]
  AUC: 0.824
  IC50: 15600 nM
[8]
  AUC: 0.715
  IC50: 4700 nM
[9]; [12]
  AUC: 0.877
  IC50: > 5000 nM

## COR-L303 (small cell lung carcinoma, suspension)
[2]
  AUC: 0.978
  IC50: > 1020 nM
[3]
  AUC: 0.987
  IC50: > 20000 nM
[5]
  AUC: 0.695
  IC50: 2210 nM
[7]
  AUC: 0.795
  IC50: 8960 nM
[8]
  AUC: 0.802
  IC50: 7530 nM

## COR-L311 (small cell lung carcinoma, suspension)
[2]
  AUC: 0.961
  IC50: > 1020 nM
[3]
  AUC: 0.983
  IC50: > 20000 nM
[5]
  AUC: 0.186
  IC50: 67.2 nM
[7]
  AUC: 0.828
  IC50: 13500 nM
[8]
  AUC: 0.639
  IC50: 2490 nM

## Caov-3 (ovary, adherent)
[2]
  AUC: 0.989
  IC50: > 1020 nM
[3]
  AUC: 0.991
  IC50: > 20000 nM
[4]
  AUC: 0.564
  IC50: 46.9 nM
[5]
  AUC: 0.743
  IC50: 2850 nM
[6]; [10]
  AUC: 0.986
  IC50: > 2560 nM
[7]
  AUC: 0.909
  IC50: > 20000 nM
[8]
  AUC: 0.789
  IC50: 6140 nM

## ECC12 (stomach, suspension)
[6]; [10]
  AUC: 0.979
  IC50: > 2560 nM
[9]; [13]
  AUC: 0.969
  IC50: > 2500 nM

## GCT (soft tissue, adherent)
[1]
  AUC: 0.5
  IC50: 624 nM
[2]
  AUC: 0.987
  IC50: > 1020 nM
[3]
  AUC: 0.989
  IC50: > 20000 nM
[4]
  AUC: 0.214
  IC50: 4.99 nM
[5]
  AUC: 0.972
  IC50: > 10200 nM
[6]; [10]
  AUC: 0.63
  IC50: 355 nM
[6]; [11]
  AUC: 0.928
  IC50: > 10000 nM
[7]
  AUC: 0.987
  IC50: > 20000 nM
[8]
  AUC: 0.954
  IC50: > 16000 nM
[9]; [12]
  AUC: 0.368
  IC50: 139 nM

## GP5d (large intestine, adherent)
[1]
  AUC: 0.74
  IC50: 2770 nM
[2]
  AUC: 0.891
  IC50: 970 nM
[3]
  AUC: 0.984
  IC50: > 20000 nM
[4]
  AUC: 0.513
  IC50: 34.6 nM
[5]
  AUC: 0.872
  IC50: 7990 nM
[6]; [10]
  AUC: 0.99
  IC50: > 2560 nM
[6]; [11]
  AUC: 0.923
  IC50: > 10000 nM
[7]
  AUC: 0.885
  IC50: 17800 nM
[8]
  AUC: 0.851
  IC50: 10300 nM
[9]; [12]
  AUC: 0.978
  IC50: > 5000 nM

## H2803 (mesothelioma, adherent)
[1]
  AUC: 0.725
  IC50: 3060 nM
[2]
  AUC: 0.976
  IC50: > 1020 nM
[3]
  AUC: 0.976
  IC50: > 20000 nM
[4]
  AUC: 0.571
  IC50: 51.7 nM
[5]
  AUC: 0.886
  IC50: > 10200 nM
[6]; [10]
  AUC: 0.972
  IC50: > 2560 nM
[6]; [11]
  AUC: 0.956
  IC50: > 10000 nM
[7]
  AUC: 0.961
  IC50: > 20000 nM
[8]
  AUC: 0.882
  IC50: > 16000 nM
[9]; [12]
  AUC: 0.976
  IC50: > 5000 nM
